PubChem BioAssay AID1508624 (National Center for Advancing Translational Sciences (NCATS), 2021)
Screen size: about 48,000 compounds; about 120 (0.25%) were called active. Another 4% or so got no clear call; they are omitted. The call rests on the fitted dose curve; in most records, active means well fitted activation curve with a large enough effect; inconclusive means small, poorly fitted or top-dose-only effect, or another doubt; inactive means no such curve, though single readings can be large or run the other way. The list shows a part of the results.

assay: Primary qHTS for Identification of Small Molecule Activators of Huntingtin-Antisense Promoter Activity; conditions: HEK293 HTT-AS promoter firefly luciferase reporter, 24 h; series mostly up to 57.5 µM; activity change, positive = activation: at the top concentration; further: nearly all actives have a fitted effect of over 55% in size
Procedure, shortened: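 HEK293 cells carrying firefly luciferase reporters were seeded at 2,500 per well in Opti-MEM and cultured for 24 h. They were then treated with compounds at up to 57.5 uM final for 24 h at 37 degrees C before Dual-Glo luminescence readout.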
Potency means the concentration at half of the fitted maximal effect.

SMILES	activity change, positive = activation	Potency
COc1cccc(CNC(=O)C2CCN(S(=O)(=O)N3CCC(C)CC3)CC2)c1	inactive: -29.3%	
CC1CCN(S(=O)(=O)c2ccc3nc(Nc4ccc(C#N)cc4)ccc3c2)CC1	inactive: -42.2%	
COc1ccccc1CNS(=O)(=O)c1ccc(F)c(C(=O)Nc2cc(Cl)ccc2OC)c1	inactive: -33.3%	
O=C(NCC(c1cccnc1)N1CCc2ccccc2C1)C(=O)Nc1ccccc1 (stereo not given)	inactive: -3.22%	
COc1ccccc1N1CCN(S(=O)(=O)c2c(C)nc3sc(C)c(C)n3c2=O)CC1	inactive: -17.9%	
CC1Cc2cc(S(=O)(=O)N(C)c3ccc(Br)cc3)ccc2N1C(=O)C1CC1 (stereo not given)	inactive: -32.3%	
COc1ccc(NC(=O)C2CCCN(S(=O)(=O)c3cccs3)C2)cc1 (stereo not given)	inactive: -16.9%	
CCC1CCCCN1CCCNC(=O)c1cc2c(=O)n(CC)c3ccccc3c2s1 (stereo not given)	inactive: -10.2%	
CCN1CCN(C(c2ccccc2)c2c(O)cc(C)n(Cc3ccco3)c2=O)CC1 (stereo not given)	inactive: 1.54%	
COc1ccc(CNC(=O)C2CCN(S(=O)(=O)c3ccc(C)cc3)CC2)cc1	inactive: -2.78%	
N#C/C(=C/c1ccc(Cl)cc1Cl)c1nc2ccccc2c(=O)[nH]1	inactive: -8.4%	
COC(=O)c1c(N)n(-c2ccc(OC)c(Cl)c2)c2nc3ccccc3nc12	inactive: -5.93%	
COc1ccc(-c2nnc3c4ccccc4c(-c4ccccc4)nn23)cc1	inactive: -8.36%	
CCOc1ccc(CCNC(=O)c2cccc(-n3c(C)nc4cccnc43)c2)cc1	inactive: -31.1%	
O=C(Nc1ccccc1F)c1ccc(-c2ccccc2)s1	inactive: 22.3%	
CCN(CC)C(=O)c1sc2c(c1C)c(=O)n(-c1ccc(Cl)c(Cl)c1)c(=O)n2CC(=O)Nc1cccc(OC)c1	inactive: -30.9%	
CCOC(=O)c1nnn(CC(=O)NC(=O)Nc2cccc(CC)c2)c1C(=O)OCC	inactive: -20.1%	
O=C(COc1ccc(Cl)cc1)NCCc1csc(-c2ccc(F)cc2)n1	inactive: -23.3%	
Cc1nn(C)c(C)c1S(=O)(=O)N(CC(=O)N1CCN(c2ccccc2)CC1)c1ccc(C(C)C)cc1	inactive: -6.68%	
CCOc1ccccc1NC(=O)C1CCN(S(=O)(=O)c2ccc3[nH]c4c(c3c2)CCCCC4)CC1	inactive: -20%	
CCCCCNC(=O)c1ccc2c(c1)nc(C)n2-c1cccc(C)c1	inactive: -2.48%	
O=C(CCn1c(=O)c2cccn2c2ccccc21)Nc1ccc(F)cc1	inactive: -18.3%	
Cc1ccc(C)c(NC(=O)Cn2c(=O)ccc3cc(S(=O)(=O)N4CCCC4)ccc32)c1	inactive: -36.9%	

SMILES	activity change, positive = activation	Potency
O=C(NCc1cccs1)c1ccc(CSc2nc3cccnc3n2Cc2ccccc2)cc1	inactive: -25.6%	
O=C1C2=C(Nc3ccccc3SC2c2ccccc2C(F)(F)F)c2ccccc21 (stereo not given)	inactive: -42.8%	
Cc1cc(C)n(-c2nnc(Nc3cc(Cl)ccc3C)c3ccccc23)n1	inactive: -15.3%	
COc1ccccc1NC(=O)c1cc2c([nH]c1=O)CC(C)(C)CC2=O	inactive: 15.2%	
Cc1nc(-c2ccc(C)c(S(=O)(=O)N3CCC(C(=O)Nc4ccc(Cl)cc4)CC3)c2)no1	inactive: -66.7%	
Cc1ccccc1NC(=O)c1ccc(F)c(S(=O)(=O)N(C)C2CCCCC2)c1	inactive: -44.9%	
COc1ccc(NC(=O)c2sc3nc4c(cc3c2N)CCCCCC4)cc1OC	inactive: 1.2% [at 11.5 µM, percent change from vehicle, -100% = no light]	
COc1cc2c(cc1OC)[C@@H]1C(=O)c3ccc4c(c3O[C@@H]1CO2)C=CC(C)(C)O4	inactive: -63.1%	
COc1ccc(CCNC(=O)CCn2c(=O)c3cccn3c3cccnc32)c(OC)c1OC	inactive: -15.1%	
Cc1cccc(NC(=O)N2CCC(n3c(C)nc4cccnc43)CC2)c1	inactive: 18.4%	
CCOC(=O)N1CCC(NC(=O)c2ccc3c(c2)N(Cc2cc(C)ccc2C)C(=O)c2ccccc2S3=O)CC1 (stereo not given)	inactive: -28.8%	
CCC(C)(C)NC(=O)Cn1c(=O)ccc2cc(S(=O)(=O)N3CCC(C)CC3)ccc21	inactive: -16.7%	
CCOc1cc(C(=O)NCCc2csc(-c3ccc(C)cc3)n2)cc(OCC)c1OCC	inactive: -31.1%	
CN(C(=O)c1cc2c(=O)n3ccccc3nc2n1C)c1ccccc1		active: 5.62 µM
CC(C)c1cnn2c(NCc3ccccc3)cc(N[C@@H](CO)[C@H](O)CO)nc12	inactive: -39%	
O=C(Nc1ccc(F)cc1Cl)C1Cc2ccccc2N1C(=O)c1ccccc1 (stereo not given)	inactive: -27.1%	
O=C(CCn1nc(-c2ccc(Cl)cc2)c2ccccc2c1=O)Nc1ccc(OC(F)(F)F)cc1	inactive: -25.4%	
CC(=O)c1cccc(NC(=O)c2nc3ccccc3nc2N2CCCCC2)c1	inactive: 0%	
Cc1ccc(Cl)cc1N1CCN(C(=O)C2CCN(S(=O)(=O)c3ccc4c(c3)oc(=O)n4C)CC2)CC1	inactive: -34.7%	
COc1ccc(OC)c(CNC(=O)C2CCN(c3ncnc4c3nc3n4CCCCC3)CC2)c1	inactive: 1.37%	
CN1C(=O)C2(c3ccccc31)N(c1ccc(F)c(Cl)c1)C(=O)CS2(=O)=O (stereo not given)	inactive: -10.9%	
Cc1cc(C)c2c(n1)nn1c(C)c(CCC(=O)NCc3ccc(Cl)cc3)c(C)nc21	inactive: -7.79%	
COC(=O)c1cc(S(=O)(=O)NCC2CCN(Cc3ccccc3F)CC2)c[nH]1	inactive: -4.24%	

SMILES	activity change, positive = activation	Potency
O=C(Nc1cc(F)ccc1F)c1cc2nc(-c3ccco3)cc(C(F)(F)Cl)n2n1	inactive: 17.1%	
CCC(=O)N1CCc2cc(S(=O)(=O)CCC(=O)N3CCN(c4ccc(C(C)=O)cc4)CC3)ccc21	inactive: -29.8%	
CCOc1ccc(-c2cn3c(n2)sc2cc(C(=O)NCCc4ccc(OC)c(OC)c4)ccc23)cc1	inactive: 0.172%	
Cc1ccc(C2=NN(CC(=O)NCCc3ccc(Cl)cc3)C(=O)CC2)cc1	inactive: -7.28%	
CCOC(=O)c1c(S(=O)(=O)N2CCC(C(=O)Nc3ccc(OCC)cc3)CC2)c(C)n(C)c1C	inactive: -24.9%	
CCCCN(CCCC)CCNC(=O)c1cn(C)c2ccc(S(=O)(=O)N3CCCC3)cc2c1=O	inactive: 12.3% [at 11.5 µM, percent change from vehicle, -100% = no light]	
COc1ccc(OC)c(NC(=O)N2c3ccccc3Sc3ccccc32)c1	inactive: -29.6%	
CCc1ccc(C2c3c(-c4cc(C)ccc4O)n[nH]c3C(=O)N2Cc2cccnc2)cc1 (stereo not given)	inactive: -27.5%	
O=C(NCc1ccccc1Cl)c1ccc(Nc2nc3ccccc3n3nnnc23)cc1	inactive: 22.7%	
Cc1nn(CCC(=O)N2CCN(c3ccccc3)CC2)c(C)c1S(=O)(=O)N1CCCC1	inactive: -2.71%	
CCc1cnc2c(c1SCC(=O)N1CCC(C)CC1)c(=O)n(C)c(=O)n2C	inactive: -16.7%	
Cc1c(NC(=O)Nc2ccc(F)c(Cl)c2)c(=O)n(-c2ccccc2)n1C	inactive: 3.31%	
CCOc1ccc(CCNC(=O)Cn2nnc(-c3ccc(C(F)(F)F)cc3)n2)cc1OCC	inactive: -12.2%	
CC(=O)Nc1nnc(SCc2cc(=O)c3cccc(Cl)c3[nH]2)s1	inactive: -15.3%	
Cn1cc(CCCC(=O)NCc2ccccc2Cl)c2ccccc21	inactive: -6.33%	
CCOc1ccc(OCC)c(Nc2cc(C)nc3nc(-c4ccco4)nn23)c1	inactive: -13.3%	
CC(=O)N1c2ccc(S(=O)(=O)N3CCCCCC3)cc2CC1C(=O)NCc1ccccc1F (stereo not given)	inactive: -9.72%	
CCOc1ccc(CCNC(=O)CN2C(=O)c3cccnc3Oc3ccc(Cl)cc32)cc1	inactive: -14.5%	
O=C(c1ccc([N+](=O)[O-])cc1)N1CCN(c2ccc(Nc3ccccc3)nn2)CC1	inactive: -6.3%	
CCN(CC)C(=O)C1=C(C)Nc2nc3ccccc3n2C1c1cccc(Cl)c1 (stereo not given)	inactive: 0.186%	
Cc1ccc(NC(=O)Cn2c(=O)c(CNc3ccccc3)cc3cc4c(cc32)OCCO4)cc1	inactive: -17.1%	
COC(=O)c1ccc(NC(=O)CSc2n[nH]c(CC(C)C)n2)cc1	inactive: -0.222%	
COc1ccc(CNC(=O)c2cc3cccc(OC)c3oc2=O)cc1	inactive: -12.2%	

SMILES	activity change, positive = activation	Potency
Cc1ccc(-c2nonc2NC(=O)c2ccco2)cc1C	inactive: -15.6%	
COc1cc(CNc2ccc3[nH]c(=O)[nH]c3c2)cc(Cl)c1OCc1ccccc1F	inactive: -32%	
Cc1ccc(-c2nc3ccccc3[nH]2)cc1NC(=O)COc1cccc(C)c1C	inactive: -23.1%	
Cc1ccc(-c2nn(CC(=O)Nc3cccc(C(F)(F)F)c3)c(=O)c3ccccc23)cc1	inactive: 10.4% [at 11.5 µM, percent change from vehicle, -100% = no light]	
Cc1ccc(CNC(=O)c2ccc3c(c2)N(Cc2cccc(C)c2)C(=O)CS3)cc1	inactive: -31.8%	
Cc1oc(C)c2c(=O)cc(-c3ccc4c(c3)OCO4)cc(OC(=O)c3ccc(Cl)cc3)c12	inactive: -4.21%	
Cc1cccc(-c2[nH]ncc2-c2ccc3ncccc3n2)n1	inactive: -18.6%	
Cc1cccc(C)c1NC(=O)CSCc1cnn(-c2ccccc2)c1-n1cccc1	inactive: -30.6%	
CCC(Sc1nc2ccccc2c2nc(CCc3c(C)n[nH]c3C)nn12)C(=O)Nc1ccccc1F (stereo not given)	inactive: -14.3%	
NC(CSCC(=O)O)C(=O)O (stereo not given)	inactive: -8.79%	
COc1ccccc1Cn1c(CNS(=O)(=O)c2cccc([N+](=O)[O-])c2)nc2cccnc21	inactive: -35%	
Cc1ccccc1C(=O)Nc1ccc(C(=O)N2CCCC(N(C)C)c3ccccc32)cc1 (stereo not given)	inactive: -26.5%	
COc1ccc(C)cc1NC(=O)CCn1nc(C)cc1C	inactive: -5.78%	
COc1ccc(C)cc1NC(=O)CC(=O)Nc1ccc2nc3n(c(=O)c2c1)CCCCC3	inactive: -29.7%	
CC(C)[C@@H]1CC[C@@H](C)CC1=O	inactive: -2.79%	
CC[C@@]1(O)C[C@H](O[C@H]2C[C@H](N(C)C)[C@H](O[C@H]3C[C@H](O)[C@H](O[C@H]4CCC(=O)[C@H](C)O4)[C@H](C)O3)[C@H](C)O2)c2c(cc3c(c2O)C(=O)c2c(O)cccc2C3=O)[C@@H]1C(=O)OC	inactive: -25.1%	
CC(=O)c1cc2ccccc2s1	inactive: 5.53%	
CCOc1ccc(S(=O)(=O)N(C(=O)c2ccncc2)c2ccc3oc(C)c(C(=O)OC)c3c2)cc1	inactive: -71.7%	
CCOc1ccc(C2=CC(c3cc(Br)ccc3F)n3ncnc3N2)cc1Cl (stereo not given)	inactive: -11.1%	
Cc1nn(CC(=O)Nc2cccc(C(F)(F)F)c2)c(=O)c2nn(-c3ccccc3)c(C)c12	inactive: 6.49%	
CCOc1ccc(-n2c(=O)c3c(C)c(C)sc3n(Cc3cc(=O)n4cc(Cl)ccc4n3)c2=O)cc1	inactive: -7.35%	
